Values joined by “and” are separate entries in the source; they are usually repeats but may differ in a detail not shown here. Equal values may be shown once. Screen size: about 400,000 compounds; about 2,200 (0.55%) were called active. Inconclusive results, whose numbers are uncertain, are shown with a selection of clear calls. Calls follow the shape of the dose curve; as a rule, active = well fitted inhibition curve with a large enough effect; inconclusive = small, poorly fitted or top-dose-only effect, or another doubt; inactive = no such curve, though single readings can be large or run the other way. Where the call is inconclusive, the potency comes from a doubtful curve fit.
Each compound was assayed against DNA polymerase kappa (Homo sapiens) (UniProt Q9UBT6) (assay: qHTS for Inhibitors of Polymerase Kappa). Settings: purified Pol kappa, fluorescent DNA synthesis assay, 10 min; series mostly up to 107 µM; activity, negative = inhibition: at the top concentration.
UniProt Q9UBT6, sequence (Q9UBT6 whole entry, looked up): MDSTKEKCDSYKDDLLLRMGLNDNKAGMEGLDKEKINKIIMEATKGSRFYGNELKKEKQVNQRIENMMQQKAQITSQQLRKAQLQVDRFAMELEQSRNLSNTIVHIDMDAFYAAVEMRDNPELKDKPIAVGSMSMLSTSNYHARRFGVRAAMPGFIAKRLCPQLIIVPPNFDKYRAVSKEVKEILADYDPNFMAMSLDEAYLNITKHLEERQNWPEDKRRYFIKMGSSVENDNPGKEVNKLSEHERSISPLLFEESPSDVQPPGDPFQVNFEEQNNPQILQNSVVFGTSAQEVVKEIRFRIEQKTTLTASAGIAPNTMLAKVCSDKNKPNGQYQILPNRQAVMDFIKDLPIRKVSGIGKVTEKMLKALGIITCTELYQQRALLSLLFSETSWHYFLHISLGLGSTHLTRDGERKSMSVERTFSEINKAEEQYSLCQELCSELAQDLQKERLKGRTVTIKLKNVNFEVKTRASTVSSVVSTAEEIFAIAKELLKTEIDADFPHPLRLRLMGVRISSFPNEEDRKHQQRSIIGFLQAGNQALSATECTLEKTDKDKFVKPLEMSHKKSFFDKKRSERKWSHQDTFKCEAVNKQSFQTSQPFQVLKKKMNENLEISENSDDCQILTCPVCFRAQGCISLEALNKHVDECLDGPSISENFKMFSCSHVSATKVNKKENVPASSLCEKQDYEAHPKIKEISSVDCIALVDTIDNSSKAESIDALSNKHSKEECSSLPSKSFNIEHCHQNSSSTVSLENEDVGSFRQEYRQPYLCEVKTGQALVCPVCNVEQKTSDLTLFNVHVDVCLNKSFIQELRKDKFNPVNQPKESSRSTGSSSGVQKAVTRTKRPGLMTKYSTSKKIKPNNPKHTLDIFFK
Method in brief: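 First, compounds were pin-transferred onto 10 nM Pol kappa. After 15 min at room temperature, substrate was added to 50 nM final. Fluorescence was then measured kinetically at 0 and 10 min.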
For COc1ccccc1N1CCN(CCCCNS(=O)(=O)c2cccc3c(N(C)C)cccc23)CC1, the Potency was inconclusive: 42.3 µM [inhibitor, partial curve, poor fit]. Cc1cc(C=O)c(C)n1-c1cccc(C(=O)O)c1 was tested, and the Potency was active: 79.4 µM. For O=C1CC(c2ccc(O)c(O)c2)Oc2cc(O)cc(O)c21 (stereo not drawn), the Potency was active: 35.5 µM and active: 15.8 µM. With O=C(Nc1ccccc1Cl)c1cccc(NC(=O)c2cccs2)c1 the Potency was inconclusive: 89.1 µM [inhibitor, single point]. Cc1ccc(S(=O)(=O)c2cn(C)c3cc(N4CCCC(C)C4)c(F)cc3c2=O)c(C)c1 (stereo not drawn) was tested, and the “activity, negative = inhibition” value was inactive: -8.69%. With C=CCn1c(SCc2nc3sc(C(=O)O)c(C)c3c(=O)[nH]2)nnc1-c1ccccc1 the “activity, negative = inhibition” value was inactive: -37.3%. For CCN1C(=O)/C(=C/C=C2\N(CC)c3cc(S(=O)(=O)N(C)C)ccc3N2c2ccccc2)SC1=S, the Potency was inconclusive: 3.55 µM [inhibitor, partial curve, poor fit]. For CC1CC(C)CN(C(=O)COC(=O)/C=C/c2cccc([N+](=O)[O-])c2)C1 (stereo not drawn), the “activity, negative = inhibition” value was inactive: -15.2%. For COc1cc(OC)c(NC(=O)CN(C)S(=O)(=O)c2ccc3[nH]c(=O)oc3c2)cc1Cl, the Potency was inconclusive: 89.1 µM [inhibitor, single point]. With Cc1ccc(/C([O-])=C(/C(=S)NCc2ccco2)[n+]2ccccc2)cc1[N+](=O)[O-] the Potency was active: 25.1 µM. COC(=O)[C@H]1CC=C[C@H]2CCN(Cc3ccc(Cl)c(Cl)c3)C(=O)[C@@H]12 was tested, and the Potency was inconclusive: 35.5 µM [inhibitor, partial curve, poor fit]. Nc1c(S(=O)(=O)O)cc(Nc2cccc3ccccc23)c2c1C(=O)c1ccccc1C2=O was tested, and the Potency was inconclusive: 37.7 µM [inhibitor, single point]. CNC(=O)c1c[nH]c2ccc(S(=O)(=O)Nc3cccc(Cl)c3C)cc2c1=O was tested, and the Potency was inconclusive: 89.1 µM [inhibitor, single point]. COc1cc(NC(=O)Cc2c(C(=O)O)c(C)cn2C)cc(OC)c1 was tested, and the “activity, negative = inhibition” value was inactive: -8.8% [at 60.1 µM]. CC(=O)Nc1ccc(NC(=S)Nc2ccc(Br)cc2)cc1 was tested, and the Potency was inconclusive: 89.1 µM [inhibitor, single point]. For Cc1cc(C)c2c(=O)cc(C(=O)Nc3sc4c(c3C(=O)NCc3cccnc3)CCCC4)oc2c1, the Potency was inconclusive: 89.1 µM [inhibitor, single point]. For O=C(N/N=C/c1cc(Br)c(Br)o1)c1cccnc1, the Potency was inconclusive: 44.7 µM [inhibitor, partial curve, poor fit]. For COc1ccccc1CNC(=O)c1ccc(N2Cc3cccc(OC)c3Oc3ncccc32)s1, the Potency was inconclusive: 89.1 µM [inhibitor, partial curve, poor fit].

— PubChem BioAssay AID588579 (National Center for Advancing Translational Sciences (NCATS), 2011)
% is scaled to controls: 0 for no effect and ±100 for the full control effect; potency is read from the fitted curve at half-maximal effect; tags tell the direction and shape of the fitted curve.
